In patent US20170037106A1 (FLOREY INSTITUTE OF NEUROSCIENCE AND MENTAL HEALTH, published 2017):
These are yes or no findings as the source states them, for the method shown. Some entries that bind do so weakly or less than the wild type. For some assays here: Sequences can lack the tags named with a protein.

T1: RXFP1 (LGR7) receptor, on stably transfected HEK-293T cells (UniProt Q9HBX9)
T1 sequence (looked up): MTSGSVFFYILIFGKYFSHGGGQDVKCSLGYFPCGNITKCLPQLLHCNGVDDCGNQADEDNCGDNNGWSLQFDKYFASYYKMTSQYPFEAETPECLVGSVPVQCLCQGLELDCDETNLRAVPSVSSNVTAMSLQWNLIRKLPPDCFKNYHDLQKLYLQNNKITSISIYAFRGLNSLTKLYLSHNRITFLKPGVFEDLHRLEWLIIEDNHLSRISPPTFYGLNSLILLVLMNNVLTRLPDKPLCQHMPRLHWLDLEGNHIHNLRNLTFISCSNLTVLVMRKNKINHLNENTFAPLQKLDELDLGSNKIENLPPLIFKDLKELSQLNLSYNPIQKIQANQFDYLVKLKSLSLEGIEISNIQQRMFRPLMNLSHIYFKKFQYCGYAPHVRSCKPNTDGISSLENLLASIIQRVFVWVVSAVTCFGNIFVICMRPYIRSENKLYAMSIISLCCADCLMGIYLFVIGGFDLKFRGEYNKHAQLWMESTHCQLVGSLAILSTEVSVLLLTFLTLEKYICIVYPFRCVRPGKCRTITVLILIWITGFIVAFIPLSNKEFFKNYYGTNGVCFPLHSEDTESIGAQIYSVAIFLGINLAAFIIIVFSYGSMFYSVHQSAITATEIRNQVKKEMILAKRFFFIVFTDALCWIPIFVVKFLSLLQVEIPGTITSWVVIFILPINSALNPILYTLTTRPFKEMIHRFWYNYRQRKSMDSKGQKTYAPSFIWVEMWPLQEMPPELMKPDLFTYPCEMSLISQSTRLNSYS

T2: 7BP: fusion protein comprising the extracellular domain of RXFP1 and the transmembrane domain of CD8, on cells (UniProt Q9HBX9)
T2 sequence (looked up): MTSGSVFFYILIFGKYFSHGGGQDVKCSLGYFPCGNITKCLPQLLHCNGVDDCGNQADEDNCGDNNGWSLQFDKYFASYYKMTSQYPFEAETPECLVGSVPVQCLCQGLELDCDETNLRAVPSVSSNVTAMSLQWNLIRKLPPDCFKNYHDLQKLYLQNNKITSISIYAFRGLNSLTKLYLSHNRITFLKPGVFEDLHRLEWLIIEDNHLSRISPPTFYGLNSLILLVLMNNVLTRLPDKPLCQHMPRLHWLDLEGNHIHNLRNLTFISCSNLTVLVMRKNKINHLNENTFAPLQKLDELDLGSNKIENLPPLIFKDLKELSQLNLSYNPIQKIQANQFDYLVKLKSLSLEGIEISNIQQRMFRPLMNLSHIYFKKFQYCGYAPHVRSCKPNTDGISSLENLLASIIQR


The binders below were run against T1, RXFP1 (LGR7) receptor, on stably transfected HEK-293T cells (assay: Eu-H2 relaxin competition, whole HEK-293T cells stably expressing RXFP1).

| binding | Binder |
| --- | --- |
| no binding (tested: pKi <5 (log M)) | DSWMEEVIKLSGRELVRAQIAISGMSTWS (C-terminal amide (-NH2)) [B1-29 C11.23S] |
| no binding (tested: pKi <5 (log M)) | VIKLSGRELVRAQAAISGMSTWSKRSL (N-terminal acetyl (Ac-); C-terminal amide (-NH2)) [I20A (AcB7-33 C11.23S)] |
| binds | VIKLSGRELVRAQIAISGMSTWSKRSL (C-terminal amide (-NH2)) [Modified B7-33 (B7-33 C11.23S)] |
| no binding (tested: pKi <5 (log M)) | VIKLSGRELVKAQIAISGMSTWSKRSL (C-terminal amide (-NH2)) [B7-33 C11.23S R17K] |
| no binding (tested: pKi <5 (log M)) | VIKLSGRELVRAQIAISGMSTWS (C-terminal amide (-NH2)) [B7-29 C11.23S] |

Each binder was assayed against T2, 7BP: fusion protein comprising the extracellular domain of RXFP1 and the transmembrane domain of CD8, on cells (assay: Eu-H2 relaxin competition on 7BP cells).

| binding | Binder |
| --- | --- |
| binds | VIKLSGAELVAAQAAISGMSTWSKRSL (N-terminal acetyl (Ac-); C-terminal amide (-NH2)) [R13/17A I20A (AcB7-33 C11.23S)] |
| binds | VIKLSGAELVRAQIAISGMSTWSKRSL (N-terminal acetyl (Ac-); C-terminal amide (-NH2)) [R13A (AcB7-33 C11.23S)] |
| binds | VIKLSGRELVRAQIAISGMSTWSKRSL (C-terminal amide (-NH2)) [Modified B7-33 (B7-33 C11.23S)] |
| binds | VIKLSGRELVRAQIAISGMSTWSKKKK (N-terminal acetyl (Ac-); C-terminal amide (-NH2)) [KKKK (AcB7-29 C11.23S)] |
| binds | VIKLSGRELVRAQIAISGMSTWSKRSL (N-terminal acetyl (Ac-); C-terminal amide (-NH2)) [AcB7-33 C11.23S] |
| binds | VIKLSGRELVAAQIAISGMSTWSKRSL (N-terminal acetyl (Ac-); C-terminal amide (-NH2)) [R17A (AcB7-33 C11.23S)] |
